{"source": "paper PMC5892938", "note": "Some of the results follow. Construct or isoform of the protein are uncertain.", "data": [{"target": "GST-SBP-ILF3 (Homo sapiens) (UniProt Q12906)", "assay": "targeted RNA Bind-n-Seq", "details": "RBNS binding buffer: 25 mM Tris pH 7.5, 150 mM KCl, 3 mM MgCl2, 0.1% Tween, 0.5 mg/mL BSA, 1 mM DTT; 27 nM protein, 750 pM RNA pool; temperature not stated; high values mean tight binding; sequences stand for … in GGGUAAAAGCGAGGUGAA…CGGGACAAGUAUUAUGGG", "values": [{"sequence": "GUUGGUGGUGUUGGCGCCUAACACCGCCGA [gtspaired]", "binding signal (log2 fold change)": -0.494}, {"sequence": "GGUUGGUGUGUUGGUCUCUAACACAUCAAC [gtspaired]", "binding signal (log2 fold change)": -0.88}, {"sequence": "UUUUUUUUUUGAGACCGAGACGGUCUCCGG [tttttgagapaired]", "binding signal (log2 fold change)": 0.35}, {"sequence": "UUUUUUUUUUGAGAUGGAUCCCAUCUUCUG [tttttgagapaired]", "binding signal (log2 fold change)": 0.384}, {"sequence": "UUUUUUUUUUGAGAUCGAACCGAUCUCCUG [tttttgagapaired]", "binding signal (log2 fold change)": 0.139}, {"sequence": "UUUUUUUUUUGAGAGCGAGGCGCUCUCCUA [tttttgagapaired]", "binding signal (log2 fold change)": -0.0654}, {"sequence": "UUCUCUUCUCCUCCAGUGGAGGGGGAGGGA [ctspaired]", "binding signal (log2 fold change)": -0.668}, {"sequence": "GGUUGGUGUGUUGGAGUCUAACACAUCGAC [gtspaired]", "binding signal (log2 fold change)": -0.541}, {"sequence": "UUUUUUUUUUGAGAGCGAUACGCUCUUCUG [tttttgagapaired]", "binding signal (log2 fold change)": 0.0296}, {"sequence": "UUUUUUUUUUGAGACGGACGCCGUCUUCUG [tttttgagapaired]", "binding signal (log2 fold change)": 0.671}, {"sequence": "UUCCUCUCUCCUCCGGCGGAGGGGGGAGGA [ctspaired]", "binding signal (log2 fold change)": -0.135}, {"sequence": "UUUUUUUUUUGAGACGGAUUCCGUCUUCUA [tttttgagapaired]", "binding signal (log2 fold change)": 0.192}, {"sequence": "UUUUUUUUUUGAGAGGGAUGCCCUCUCCGG [tttttgagapaired]", "binding signal (log2 fold change)": 0.501}, {"sequence": "UUCUCUCUUCCUCCUGGGGAGGAGGGGAGA [ctspaired]", "binding signal (log2 fold change)": -0.691}, {"sequence": "UUUUUUUUUUGAGAUCGAGACGAUUUCCUA [tttttgagapaired]", "binding signal (log2 fold change)": -0.0102}, {"sequence": "UUUUUUUUUUGAGAUGGCGACCAUCUCCUG [tttttgagapaired]", "binding signal (log2 fold change)": 0.363}, {"sequence": "UUCUCUUCUCCUCCAUUGGAGGGGGAGGGA [ctspaired]", "binding signal (log2 fold change)": -0.483}, {"sequence": "GUUGUGUGUGUUGGCACCUAACACACACGA [gtspaired]", "binding signal (log2 fold change)": -0.389}, {"sequence": "UUUUUUUUUUGAGACGGAUUCCGUCUCCGG [tttttgagapaired]", "binding signal (log2 fold change)": 0.301}, {"sequence": "UUUUUUUUUUGAGAGGGCGCCCCUCUCCUA [tttttgagapaired]", "binding signal (log2 fold change)": 0.63}, {"sequence": "UUUUUUUUUUGAGAGCGAUACGUUCUCCAG [tttttgagapaired]", "binding signal (log2 fold change)": 0.285}, {"sequence": "GGUGGUGGUGUUGGUGCCUAACACCGCCGC [gtspaired]", "binding signal (log2 fold change)": -0.47}, {"sequence": "UUUUUUUUUUGAGACCGUGACGGUCUCCGG [tttttgagapaired]", "binding signal (log2 fold change)": 0.314}, {"sequence": "UUUUUUUUUUGAGAUCGAGUCGAUCUUCUG [tttttgagapaired]", "binding signal (log2 fold change)": 0.0172}, {"sequence": "UUUUUUUUUUGAGAGGGCCCCCCUCUCCGG [tttttgagapaired]", "binding signal (log2 fold change)": 0.78}, {"sequence": "UUUUUUUUUUGAGACUGGGGCAGUCUUCUG [tttttgagapaired]", "binding signal (log2 fold change)": 0.75}, {"sequence": "GUGGUGUGUGUUGGCACCUAACACACAUCG [gtspaired]", "binding signal (log2 fold change)": -0.861}, {"sequence": "UUUUUUUUUUGAGAACGGGCCGUUCUCCGG [tttttgagapaired]", "binding signal (log2 fold change)": 0.63}, {"sequence": "GUGGUUGGUGUUGGUUCCUAACACCGACUA [gtspaired]", "binding signal (log2 fold change)": -0.811}, {"sequence": "UUUUUUUUUUGAGAUCGACGCGAUCUCCUG [tttttgagapaired]", "binding signal (log2 fold change)": 0.536}, {"sequence": "GGUGUGUGUGUUGGAACCUAACACAUACGC [gtspaired]", "binding signal (log2 fold change)": -0.395}, {"sequence": "GUGUGUGGUGUUGGUCCCUAACACCACGCA [gtspaired]", "binding signal (log2 fold change)": -0.498}, {"sequence": "UUUUUUUUUUGAGACUGUAACAGUCUCCUA [tttttgagapaired]", "binding signal (log2 fold change)": 0.374}, {"sequence": "UUUUUUUUUUGAGAUGGGUGCCAUCUUCUA [tttttgagapaired]", "binding signal (log2 fold change)": 0.355}, {"sequence": "GUGUGGUGUGUUGGAUUCUAACACAUCGCG [gtspaired]", "binding signal (log2 fold change)": -0.832}, {"sequence": "GGUGUUGGUGUUGGAGUCUAACACCGACGC [gtspaired]", "binding signal (log2 fold change)": -0.576}, {"sequence": "UUUUUUUUUUGAGACCGAACCGGUUUCCAG [tttttgagapaired]", "binding signal (log2 fold change)": 0.227}, {"sequence": "UUUUUUUUUUGAGAGUGAGGCACUCUCCAG [tttttgagapaired]", "binding signal (log2 fold change)": 0.0851}, {"sequence": "UUUUUUUUUUGAGACGGAGGCCGUCUUCUG [tttttgagapaired]", "binding signal (log2 fold change)": 0.687}, {"sequence": "UUUUUUUUUUGAGACGGAAGCCGUUUCCAG [tttttgagapaired]", "binding signal (log2 fold change)": 0.409}, {"sequence": "UUUUUUUUUUGAGAUCGUGGCGAUCUCCAG [tttttgagapaired]", "binding signal (log2 fold change)": 0.519}, {"sequence": "UUUUUUUUUUGAGAGUGAUCCAUUCUCCGG [tttttgagapaired]", "binding signal (log2 fold change)": -0.0392}, {"sequence": "GUUGUGUGUGUUGGAUCCUAACACACGCAG [gtspaired]", "binding signal (log2 fold change)": -0.712}, {"sequence": "UUUUUUUUUUGAGACUGGACCAGUCUUCUG [tttttgagapaired]", "binding signal (log2 fold change)": 0.627}, {"sequence": "GUGUGGUGUGUUGGUCCCUAACACACCGCG [gtspaired]", "binding signal (log2 fold change)": -0.352}, {"sequence": "GUGUGGUGUGUUGGCUCCUAACACACUACA [gtspaired]", "binding signal (log2 fold change)": -0.676}, {"sequence": "GUGUGUGGUGUUGGAACCUAACACCACGCG [gtspaired]", "binding signal (log2 fold change)": -0.779}, {"sequence": "UUUUUUUUUUGAGACCGGGGCGGUCUUCUA [tttttgagapaired]", "binding signal (log2 fold change)": 0.815}, {"sequence": "UUUUUUUUUUGAGACCGACACGGUCUCCUG [tttttgagapaired]", "binding signal (log2 fold change)": 0.523}, {"sequence": "UUUUUUUUUUGAGACUGUAACAGUUUCCGG [tttttgagapaired]", "binding signal (log2 fold change)": 0.59}, {"sequence": "UUUUUUUUUUGAGACUGGACCAGUCUCCUA [tttttgagapaired]", "binding signal (log2 fold change)": 0.179}, {"sequence": "UUUUUUUUUUGAGAUGGCGACCAUCUUCUG [tttttgagapaired]", "binding signal (log2 fold change)": 0.548}]}]}
